From the supplement of paper PMC3334620
Whole data set: some 33,000 sequences, median “E-score (-0.5 to 0.5)” near -0.036, cut for the highest 2% near 0.37. This is one part of the list.

These sequences were tested against T1, Yer064c (UniProt P40041) (assay: PBM E-score (8-mer binding enrichment) (E-score (-0.5 to 0.5)); higher = stronger / more preferred TF binding; most listed sequences are background and not binding sites). Conditions: protein concentration: 200 nM; construct: GST-full length.
T1 sequence: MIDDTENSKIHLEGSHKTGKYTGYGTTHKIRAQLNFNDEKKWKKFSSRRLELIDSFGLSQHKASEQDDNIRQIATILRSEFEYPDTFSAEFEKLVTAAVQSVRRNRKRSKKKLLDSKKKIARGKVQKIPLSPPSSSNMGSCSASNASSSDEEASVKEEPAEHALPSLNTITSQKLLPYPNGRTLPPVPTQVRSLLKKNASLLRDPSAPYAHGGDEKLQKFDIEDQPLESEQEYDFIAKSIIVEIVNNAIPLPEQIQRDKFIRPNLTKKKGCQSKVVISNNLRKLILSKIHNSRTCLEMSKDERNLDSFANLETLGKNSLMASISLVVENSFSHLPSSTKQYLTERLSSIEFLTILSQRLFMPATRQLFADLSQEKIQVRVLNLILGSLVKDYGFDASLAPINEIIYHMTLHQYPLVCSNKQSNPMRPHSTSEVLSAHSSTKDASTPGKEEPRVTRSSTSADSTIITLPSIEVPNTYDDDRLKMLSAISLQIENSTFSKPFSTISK
Method in brief: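 GST-tagged yeast TFs (full-length or DNA-binding domain) were made by PURExpress in vitro transcription/translation and applied at about 100-200 nM to universal all-10-mer Agilent arrays. The arrays were made double-stranded by primer extension, on fresh or once-stripped slides. Bound protein was detected with fluorescent anti-GST, and scans were normalised with masliner. Each ungapped eight-base word, pooled with its reverse complement, received an E-score (modified Wilcoxon-Mann-Whitney statistic) from the Universal PBM Analysis Suite.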
With CCTATCAG the “PBM E-score” value was -0.2. With ATCAACGG the “PBM E-score” value was 0.168. For AGTCAGAC, the “PBM E-score” value was 0.436. In the case of GAAAATGC, the “PBM E-score” value is reported as -0.228. GCCAGCGC was tested, and the “PBM E-score” value was -0.166. AACCCCTA was tested, and the “PBM E-score” value was -0.0207. AGACCGCG was tested, and the “PBM E-score” value was -0.1. In the case of ACTCGTAG, the “PBM E-score” value is reported as 0.218. TCTAAGAA was tested, and the “PBM E-score” value was 0.163. In the case of ACAATTAC, the “PBM E-score” value is reported as 0.162. In the case of ATACTTGA, the “PBM E-score” value is reported as 0.103. In the case of AGAGATAG, the “PBM E-score” value is reported as -0.0413. In the case of GCCGGGCA, the “PBM E-score” value is reported as -0.199. In the case of AAGGTACG, the “PBM E-score” value is reported as -0.094. ACTTTGGG was tested, and the “PBM E-score” value was 0.0215. With CAGACTGC the “PBM E-score” value was 0.0507. With GTGAATGA the “PBM E-score” value was 0.14. ACGTTTAC was tested, and the “PBM E-score” value was -0.123. For ATTCCCGA, the “PBM E-score” value was -0.0261. For CATACACA, the “PBM E-score” value was 0.113. For AATTAAAA, the “PBM E-score” value was 0.034. In the case of TGTTTTAA, the “PBM E-score” value is reported as 0.138. For CGAATGGA, the “PBM E-score” value was -0.0457. AATGAATG was tested, and the “PBM E-score” value was -0.0293. CATTAGAG was tested, and the “PBM E-score” value was 0.0235. CTTAGAAC was tested, and the “PBM E-score” value was 0.0672. For CCTCGGTC, the “PBM E-score” value was -0.143. With CTAAAACA the “PBM E-score” value was 0.131. In the case of AGACTCAA, the “PBM E-score” value is reported as 0.444. In the case of ATGTCGAA, the “PBM E-score” value is reported as 0.0855. With ACCCACCA the “PBM E-score” value was 0.0966. CATCCGGA was tested, and the “PBM E-score” value was -0.0769. With TACACTCA the “PBM E-score” value was 0.261. GGGGCGGA was tested, and the “PBM E-score” value was -0.283. AGTAGTCC was tested, and the “PBM E-score” value was 0.302. For ACCACGAT, the “PBM E-score” value was 0.0506. In the case of GCTCGTGA, the “PBM E-score” value is reported as 0.0795. For CTCTAGTA, the “PBM E-score” value was -0.0139. AATTCTTC was tested, and the “PBM E-score” value was -0.0359. In the case of CTCTAACA, the “PBM E-score” value is reported as 0.0233. CTGAAGGA was tested, and the “PBM E-score” value was -0.0183. With CATTCTGG the “PBM E-score” value was -0.0961. In the case of AAGTGGCG, the “PBM E-score” value is reported as -0.181. In the case of CGATATGC, the “PBM E-score” value is reported as -0.107. For CATTACAC, the “PBM E-score” value was 0.16. GGTTCTAA was tested, and the “PBM E-score” value was -0.0224. With CCTCTTTC the “PBM E-score” value was -0.185. GCGTGAGC was tested, and the “PBM E-score” value was 0.0182. CAGTTTGG was tested, and the “PBM E-score” value was -0.0794. GTCCACCA was tested, and the “PBM E-score” value was -0.0759. With AAATGCTG the “PBM E-score” value was -0.0597. In the case of AGCGATGG, the “PBM E-score” value is reported as -0.023. With CTCAGTAA the “PBM E-score” value was 0.129. CTGGCCGC was tested, and the “PBM E-score” value was -0.163. With GAATAAGA the “PBM E-score” value was 0.024. For CTTGGTGA, the “PBM E-score” value was 0.179. CCTGAGTA was tested, and the “PBM E-score” value was 0.234. In the case of AATTAAGC, the “PBM E-score” value is reported as 0.00193. In the case of ACGTTGAG, the “PBM E-score” value is reported as 0.0564. In the case of AAGCCAAA, the “PBM E-score” value is reported as -0.0544. AACTATGC was tested, and the “PBM E-score” value was -0.153. For CTTTAACC, the “PBM E-score” value was 0.0642. CCGGAAGG was tested, and the “PBM E-score” value was -0.135. In the case of TAGAATAA, the “PBM E-score” value is reported as -0.0152. For ATAAACTG, the “PBM E-score” value was -0.071. CATAGCCC was tested, and the “PBM E-score” value was -0.137. AAATTATA was tested, and the “PBM E-score” value was -0.00406. With CATCTGGC the “PBM E-score” value was 0.179. With CATTTCGA the “PBM E-score” value was -0.0334. With TCATTGAA the “PBM E-score” value was 0.214. For GAGCGGGA, the “PBM E-score” value was -0.0855. For CTGGAATC, the “PBM E-score” value was 0.123. CACAGGCC was tested, and the “PBM E-score” value was -0.178. For GGGCACAC, the “PBM E-score” value was -0.207. In the case of ACCCTTTA, the “PBM E-score” value is reported as -0.0479. ACGGCAAA was tested, and the “PBM E-score” value was -0.28. For AGCCCCCC, the “PBM E-score” value was -0.221. With CAATATCG the “PBM E-score” value was -0.0208. ATTATAAG was tested, and the “PBM E-score” value was 0.109. In the case of GCTTAGGA, the “PBM E-score” value is reported as -0.062. For GAGGGCAC, the “PBM E-score” value was -0.327. In the case of CCATTACA, the “PBM E-score” value is reported as 0.12. CGGAGCCA was tested, and the “PBM E-score” value was -0.107. For CATCGTGC, the “PBM E-score” value was -0.0833. ATCCCGCA was tested, and the “PBM E-score” value was -0.0251. With CCTATGCG the “PBM E-score” value was -0.057. In the case of AACCGTCG, the “PBM E-score” value is reported as -0.191. With GTCCTTGA the “PBM E-score” value was 0.138. In the case of AAAAGCGA, the “PBM E-score” value is reported as -0.00511. With ATGCCCCC the “PBM E-score” value was -0.194. For AACCCCCC, the “PBM E-score” value was -0.171. With CTAACTGC the “PBM E-score” value was -0.135. In the case of CGCAGAGC, the “PBM E-score” value is reported as 0.00552. For GCATCTTA, the “PBM E-score” value was -0.0391. In the case of ACCTACAG, the “PBM E-score” value is reported as -0.0134. In the case of CTCCGTGA, the “PBM E-score” value is reported as 0.136. For CATCAAGG, the “PBM E-score” value was -0.0212. With GTACTAAC the “PBM E-score” value was 0.128. With AATGGTAG the “PBM E-score” value was -0.0105. In the case of GTCGCTGA, the “PBM E-score” value is reported as 0.166. In the case of GACCACAA, the “PBM E-score” value is reported as -0.0302. CCAATTAC was tested, and the “PBM E-score” value was -0.0578. With ACATACAG the “PBM E-score” value was -0.105. In the case of GAGACTAC, the “PBM E-score” value is reported as 0.36. For CCGAAAAC, the “PBM E-score” value was -0.0537. For AAGACTGA, the “PBM E-score” value was 0.347. With GAACCCGA the “PBM E-score” value was -0.044. In the case of CAGAACGC, the “PBM E-score” value is reported as -0.146. GCACTACC was tested, and the “PBM E-score” value was 0.0252.
